Test results: EP2735616A1, “PRODUCTION METHOD FOR CASEIN-DERIVED PEPTIDES BY LACTIC ACID FERMENTATION” (Calpis Co., Ltd., priority 2011, dated 2014)
Part of at least one peptide drawing is inferred or uncertain, most often the ends. Some compounds share one wording; it may come from a single statement. Ends that are not written are not given here.

Legend:
Male ddY mice [1] = assay: Y-shaped maze test (spontaneous alternation behavior), scopolamine-induced amnesia; assay type: in vivo
Male ddY mice [2] = assay: novel object recognition test (memory retention); assay type: in vivo; conditions: 500 nmol/kg body weight (1,000 µg/kg body weight), single oral dose 60 min before training trial; retention trial 48 hours later
[3] = 50 nmol/kg body weight, single oral dose 60 min before test, scopolamine 1 mg/kg s.c., versus scopolamine control group
[4] = 500 nmol/kg body weight, single oral dose 60 min before test, scopolamine 1 mg/kg s.c., versus scopolamine control group

Row | Sequence | amnesia-preventing action (change in spontaneous alternation behavior) (Male ddY mice [1]; [3]) | amnesia-preventing action (change in spontaneous alternation behavior) (Male ddY mice [1]; [4]) | also measured
1 | NIPPLTQTPVVVPPFLQP [SEQ ID NO: 8, Asn-Ile-Pro-Pro-Leu-Thr-Gln-Thr-Pro-Val-Val-Val-Pro-Pro-Phe-Leu-Gln-Pro] | significant difference compared to the scopolamine control group could not be confirmed |  | 
2 | PPLTQTPVVVPPFLQPE [SEQ ID NO: 10, Pro-Pro-Leu-Thr-Gln-Thr-Pro-Val-Val-Val-Pro-Pro-Phe-Leu-Gln-Pro-Glu] |  | shown to have amnesia-preventing actions | 
3 | PLTQTPVVVPPFLQPE [SEQ ID NO: 12, Pro-Leu-Thr-Gln-Thr-Pro-Val-Val-Val-Pro-Pro-Phe-Leu-Gln-Pro-Glu] |  | shown to have amnesia-preventing actions | 
4 | SWMHQPHQPLPPTVMFPPQSVL [SEQ ID NO: 3] |  | shown to have amnesia-preventing actions | amnesia-preventing action (change in spontaneous alternation behavior) (Male ddY mice [1]; 150 nmol/kg body weight to 500 nmol/kg body weight (380 µg/kg to 1,280 µg/kg body weight), single oral dose, scopolamine 1 mg/kg s.c.): shown to have an amnesia-preventing action
5 | LQSWMHQPHQPLPPTVMFPPQSVL [SEQ ID NO: 4] |  | shown to have amnesia-preventing actions | 
6 | LTQTPVVVPPFLQPE [SEQ ID NO: 13, Leu-Thr-Gln-Thr-Pro-Val-Val-Val-Pro-Pro-Phe-Leu-Gln-Pro-Glu] |  | shown to have amnesia-preventing actions | 
7 | TQTPVVVPPFLQPE [SEQ ID NO: 11, Thr-Gln-Thr-Pro-Val-Val-Val-Pro-Pro-Phe-Leu-Gln-Pro-Glu] | shown to have an amnesia-preventing action |  | 
8 | PVVVPPFLQPE [SEQ ID NO: 14, Pro-Val-Val-Val-Pro-Pro-Phe-Leu-Gln-Pro-Glu] |  | shown to have amnesia-preventing actions | 
9 | MHQPHQPLPPTVMFPPQSVL [SEQ ID NO: 16] |  | shown to have amnesia-preventing actions | 
10 | IPPLTQTPVVVPPFLQPE [SEQ ID NO: 7, Ile-Pro-Pro-Leu-Thr-Gln-Thr-Pro-Val-Val-Val-Pro-Pro-Phe-Leu-Gln-Pro-Glu] | shown to have amnesia-preventing actions |  | 
11 | SWMHQPHQPLPPTVMFPPQ [SEQ ID NO: 17, Ser-Trp-Met-His-Gln-Pro-His-Gln-Pro-Leu-Pro-Pro-Thr-Val-Met-Phe-Pro-Pro-Gln] |  | significant difference could not be confirmed | 
12 | NIPPLTQTPVVVPPFLQPEVM [SEQ ID NO: 2] | shown to have amnesia-preventing actions |  | 
13 | NIPPLTQTPVVVPPFLQPE [SEQ ID NO: 1, Asn-Ile-Pro-Pro-Leu-Thr-Gln-Thr-Pro-Val-Val-Val-Pro-Pro-Phe-Leu-Gln-Pro-Glu] | shown to have amnesia-preventing actions | shown to have amnesia-preventing actions | amnesia-preventing action (change in spontaneous alternation behavior) (Male ddY mice [1]; single oral dose 60 min before test, range 0.05 nmol/kg body weight to 500 mnol/kg body weight (0.1 µg/kg to 1,000 µg/kg body weight), scopolamine 1 mg/kg s.c. 30 min before test): shown to have an amnesia-preventing action; memory-enhancing action (percentage of exploration time for the novel object) (Male ddY mice [2]): shown to have a memory-enhancing action
14 | TQTPVVVPPF [SEQ ID NO: 9, Thr-Gln-Thr-Pro-Val-Val-Val-Pro-Pro-Phe] | significant difference compared to the scopolamine control group could not be confirmed |  | 
15 | VVVPPFLQPE [SEQ ID NO: 15, Val-Val-Val-Pro-Pro-Phe-Leu-Gln-Pro-Glu] |  | shown to have amnesia-preventing actions | 
